The values below come from PMC11231238, “SPRING licenses S1P-mediated cleavage of SREBP2 by displacing an inhibitory pro-domain” (Nature Communications, 2024).

One assay addresses T1, SPRING_(ecto)-HA (human) (UniProt Q9H741).
T1 sequence: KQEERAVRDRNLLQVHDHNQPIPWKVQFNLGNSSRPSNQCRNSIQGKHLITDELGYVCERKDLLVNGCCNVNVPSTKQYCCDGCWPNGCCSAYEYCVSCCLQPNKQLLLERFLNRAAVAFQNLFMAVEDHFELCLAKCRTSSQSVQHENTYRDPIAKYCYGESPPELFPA
Nature of the assay: co-IP; HEK 293T supernatants of co-transfected cells; anti-HA agarose holds SPRING_(ecto)-HA, 1 h at 4 °C; washes in 150 mM NaCl, 50 mM HEPES-NaOH pH 7.5; elution with 200 mM glycine pH 3.5; immunoblot anti-HA and anti-His. Background: A western blot detects proteins with antibodies after separation by electrophoresis.

In assay [1] the target is T2, FLAG-S1P_(ecto)-His10, matured C-form (human, UniProt Q14703 187-998).
T2 construct: human S1P (MBTPS1); expressed as IgK leader-FLAG-residues 23-998-His10; after autoproteolysis the His10-bearing C-form; The N-terminal FLAG tag leaves with the A-domain; also called WT S1P_(ecto); C-form of S1P_(ecto); source: HEK 293S GnTI- (BacMam baculovirus), secreted, purified (NiNTA, gel filtration); HEK 293T, transfected, secreted, in supernatant; not shown: His10, C-terminal, kept
T2 sequence (looked up): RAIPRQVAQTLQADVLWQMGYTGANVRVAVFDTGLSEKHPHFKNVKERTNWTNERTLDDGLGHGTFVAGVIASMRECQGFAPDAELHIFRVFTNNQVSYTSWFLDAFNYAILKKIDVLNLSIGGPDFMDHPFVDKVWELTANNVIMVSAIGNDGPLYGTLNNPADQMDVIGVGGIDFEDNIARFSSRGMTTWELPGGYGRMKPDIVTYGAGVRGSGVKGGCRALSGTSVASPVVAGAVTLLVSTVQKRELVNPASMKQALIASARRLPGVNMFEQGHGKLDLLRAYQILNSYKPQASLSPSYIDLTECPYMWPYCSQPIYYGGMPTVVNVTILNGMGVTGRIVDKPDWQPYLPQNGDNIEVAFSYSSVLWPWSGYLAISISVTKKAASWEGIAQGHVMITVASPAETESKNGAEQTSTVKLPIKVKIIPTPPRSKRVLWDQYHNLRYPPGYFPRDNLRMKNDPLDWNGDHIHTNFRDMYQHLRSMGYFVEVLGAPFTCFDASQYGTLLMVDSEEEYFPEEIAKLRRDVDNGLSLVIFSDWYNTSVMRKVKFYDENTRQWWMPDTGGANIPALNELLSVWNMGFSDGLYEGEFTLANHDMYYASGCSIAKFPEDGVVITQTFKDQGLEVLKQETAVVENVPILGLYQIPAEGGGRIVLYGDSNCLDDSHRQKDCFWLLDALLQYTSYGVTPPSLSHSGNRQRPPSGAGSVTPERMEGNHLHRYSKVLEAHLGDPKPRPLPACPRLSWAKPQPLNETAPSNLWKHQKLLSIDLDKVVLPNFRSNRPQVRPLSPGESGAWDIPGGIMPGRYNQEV
Nature of the assay: pull-down; HEK 293T supernatants of co-transfected cells with 50 mM imidazole; NiNTA resin holds the His10 tag of S1P_(ecto), 1-2 h at 4 °C; washes in 150 mM NaCl, 50 mM HEPES-NaOH pH 7.5, 50 mM imidazole; elution with 300 mM imidazole; immunoblot anti-HA, anti-His, anti-FLAG.

The target of assay [2] is T3, SPRING_(ecto)-His10 (human) (UniProt Q9H741).
T3 sequence: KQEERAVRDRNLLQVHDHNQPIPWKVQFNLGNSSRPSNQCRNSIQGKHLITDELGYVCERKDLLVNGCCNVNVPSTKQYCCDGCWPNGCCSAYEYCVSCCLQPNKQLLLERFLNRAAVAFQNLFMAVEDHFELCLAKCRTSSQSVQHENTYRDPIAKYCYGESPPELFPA
Nature of the assay: SEC-MALS; co-purified S1P_(ecto)-SPRING_(ecto) complex, 400 ug at 2 mg/mL, 0.5 mL/min, gel filtration buffer; both purified. In general terms: In gel filtration, larger molecules generally elute earlier.

Assay [3] deals with T3, SPRING_(ecto)-His10 (human). Briefly: mass photometry; co-purified S1P_(ecto)-SPRING_(ecto) complex, 100 nM stock in PBS, 1.8 uL added to 16.2 uL PBS; Refeyn TwoMP; both purified.
Assay [4] has the same target. Briefly: cryo-EM structure; co-purified S1P_(ecto)-3xFLAG/SPRING_(ecto)-His10 complex, 0.6-0.7 mg/mL on grids; Titan Krios 300 kV; both purified.
The target is the same in assay [5]. Nature of the assay: pull-down + SEC; NiNTA affinity chromatography through the His10 tag from HEK 293S GnTI- supernatants, then Superdex 200 gel filtration; 150 mM NaCl, 50 mM HEPES-NaOH pH 7.5; wash with 50 mM imidazole; Coomassie-stained SDS-PAGE.

No constants are given. Whether binding was seen depends on the method and setting. For some assays here: Binding seen in cells or lysates may run through a third protein. Some entries that bind do so weakly or less than the wild type. Tags and fused reporters may be left off the sequences shown.

B1: B-form S1P_(ecto) (FLAG-S1P_(ecto)-His10 with the C' and C sites mutated) (enzyme, UniProt Q14703 138-998)
chain: YAESDPTVPCNETRWSQKWQSSRPLAAASLSLGSGFWHATGRHSSAALLRAIPRQVAQTLQADVLWQMGYTGANVRVAVFDTGLSEKHPHFKNVKERTNWTNERTLDDGLGHGTFVAGVIASMRECQGFAPDAELHIFRVFTNNQVSYTSWFLDAFNYAILKKIDVLNLSIGGPDFMDHPFVDKVWELTANNVIMVSAIGNDGPLYGTLNNPADQMDVIGVGGIDFEDNIARFSSRGMTTWELPGGYGRMKPDIVTYGAGVRGSGVKGGCRALSGTSVASPVVAGAVTLLVSTVQKRELVNPASMKQALIASARRLPGVNMFEQGHGKLDLLRAYQILNSYKPQASLSPSYIDLTECPYMWPYCSQPIYYGGMPTVVNVTILNGMGVTGRIVDKPDWQPYLPQNGDNIEVAFSYSSVLWPWSGYLAISISVTKKAASWEGIAQGHVMITVASPAETESKNGAEQTSTVKLPIKVKIIPTPPRSKRVLWDQYHNLRYPPGYFPRDNLRMKNDPLDWNGDHIHTNFRDMYQHLRSMGYFVEVLGAPFTCFDASQYGTLLMVDSEEEYFPEEIAKLRRDVDNGLSLVIFSDWYNTSVMRKVKFYDENTRQWWMPDTGGANIPALNELLSVWNMGFSDGLYEGEFTLANHDMYYASGCSIAKFPEDGVVITQTFKDQGLEVLKQETAVVENVPILGLYQIPAEGGGRIVLYGDSNCLDDSHRQKDCFWLLDALLQYTSYGVTPPSLSHSGNRQRPPSGAGSVTPERMEGNHLHRYSKVLEAHLGDPKPRPLPACPRLSWAKPQPLNETAPSNLWKHQKLLSIDLDKVVLPNFRSNRPQVRPLSPGESGAWDIPGGIMPGRYNQEV
Consider B1, for which, in the assay with SPRING_(ecto)-HA (human), the binding entry was “binds”.

B2: SPRING_(ecto)^R174A (HA-tagged) (domain or fragment, UniProt Q9H741 36-205)
chain: KQEERAVRDRNLLQVHDHNQPIPWKVQFNLGNSSRPSNQCRNSIQGKHLITDELGYVCERKDLLVNGCCNVNVPSTKQYCCDGCWPNGCCSAYEYCVSCCLQPNKQLLLERFLNRAAVAFQNLFMAVEDHFELCLAKCATSSQSVQHENTYRDPIAKYCYGESPPELFPA
Consider B2, for which, in assay [1], the binding result was “no binding”.

B3: FLAG-S1P_(ecto)^S414A-His10 (A-form) (enzyme, UniProt Q14703 23-998)
chain: DRLEKKSFEKAPCPGCSHLTLKVEFSSTVVEYEYIVAFNGYFTAKARNSFISSALKSSEVDNWRIIPRNNPSSDYPSDFEVIQIKEKQKAGLLTLEDHPNIKRVTPQRKVFRSLKYAESDPTVPCNETRWSQKWQSSRPLRRASLSLGSGFWHATGRHSSRRLLRAIPRQVAQTLQADVLWQMGYTGANVRVAVFDTGLSEKHPHFKNVKERTNWTNERTLDDGLGHGTFVAGVIASMRECQGFAPDAELHIFRVFTNNQVSYTSWFLDAFNYAILKKIDVLNLSIGGPDFMDHPFVDKVWELTANNVIMVSAIGNDGPLYGTLNNPADQMDVIGVGGIDFEDNIARFSSRGMTTWELPGGYGRMKPDIVTYGAGVRGSGVKGGCRALSGTAVASPVVAGAVTLLVSTVQKRELVNPASMKQALIASARRLPGVNMFEQGHGKLDLLRAYQILNSYKPQASLSPSYIDLTECPYMWPYCSQPIYYGGMPTVVNVTILNGMGVTGRIVDKPDWQPYLPQNGDNIEVAFSYSSVLWPWSGYLAISISVTKKAASWEGIAQGHVMITVASPAETESKNGAEQTSTVKLPIKVKIIPTPPRSKRVLWDQYHNLRYPPGYFPRDNLRMKNDPLDWNGDHIHTNFRDMYQHLRSMGYFVEVLGAPFTCFDASQYGTLLMVDSEEEYFPEEIAKLRRDVDNGLSLVIFSDWYNTSVMRKVKFYDENTRQWWMPDTGGANIPALNELLSVWNMGFSDGLYEGEFTLANHDMYYASGCSIAKFPEDGVVITQTFKDQGLEVLKQETAVVENVPILGLYQIPAEGGGRIVLYGDSNCLDDSHRQKDCFWLLDALLQYTSYGVTPPSLSHSGNRQRPPSGAGSVTPERMEGNHLHRYSKVLEAHLGDPKPRPLPACPRLSWAKPQPLNETAPSNLWKHQKLLSIDLDKVVLPNFRSNRPQVRPLSPGESGAWDIPGGIMPGRYNQEV
For the molecule B3, in the assay with SPRING_(ecto)-HA (human), the binding result was “no binding”.

B4: S1P_(ecto)-3xFLAG, matured C-form (enzyme, UniProt Q14703 187-998)
chain: RAIPRQVAQTLQADVLWQMGYTGANVRVAVFDTGLSEKHPHFKNVKERTNWTNERTLDDGLGHGTFVAGVIASMRECQGFAPDAELHIFRVFTNNQVSYTSWFLDAFNYAILKKIDVLNLSIGGPDFMDHPFVDKVWELTANNVIMVSAIGNDGPLYGTLNNPADQMDVIGVGGIDFEDNIARFSSRGMTTWELPGGYGRMKPDIVTYGAGVRGSGVKGGCRALSGTSVASPVVAGAVTLLVSTVQKRELVNPASMKQALIASARRLPGVNMFEQGHGKLDLLRAYQILNSYKPQASLSPSYIDLTECPYMWPYCSQPIYYGGMPTVVNVTILNGMGVTGRIVDKPDWQPYLPQNGDNIEVAFSYSSVLWPWSGYLAISISVTKKAASWEGIAQGHVMITVASPAETESKNGAEQTSTVKLPIKVKIIPTPPRSKRVLWDQYHNLRYPPGYFPRDNLRMKNDPLDWNGDHIHTNFRDMYQHLRSMGYFVEVLGAPFTCFDASQYGTLLMVDSEEEYFPEEIAKLRRDVDNGLSLVIFSDWYNTSVMRKVKFYDENTRQWWMPDTGGANIPALNELLSVWNMGFSDGLYEGEFTLANHDMYYASGCSIAKFPEDGVVITQTFKDQGLEVLKQETAVVENVPILGLYQIPAEGGGRIVLYGDSNCLDDSHRQKDCFWLLDALLQYTSYGVTPPSLSHSGNRQRPPSGAGSVTPERMEGNHLHRYSKVLEAHLGDPKPRPLPACPRLSWAKPQPLNETAPSNLWKHQKLLSIDLDKVVLPNFRSNRPQVRPLSPGESGAWDIPGGIMPGRYNQEV
modifications: N-linked glycan at N515
As for B4, the binding entry in assay [2], in assay [3], in assay [4] and in assay [5] was “binds” each time.

B5: FLAG-S1P_(ecto)-His10, matured C-form (enzyme, UniProt Q14703 187-998)
chain: RAIPRQVAQTLQADVLWQMGYTGANVRVAVFDTGLSEKHPHFKNVKERTNWTNERTLDDGLGHGTFVAGVIASMRECQGFAPDAELHIFRVFTNNQVSYTSWFLDAFNYAILKKIDVLNLSIGGPDFMDHPFVDKVWELTANNVIMVSAIGNDGPLYGTLNNPADQMDVIGVGGIDFEDNIARFSSRGMTTWELPGGYGRMKPDIVTYGAGVRGSGVKGGCRALSGTSVASPVVAGAVTLLVSTVQKRELVNPASMKQALIASARRLPGVNMFEQGHGKLDLLRAYQILNSYKPQASLSPSYIDLTECPYMWPYCSQPIYYGGMPTVVNVTILNGMGVTGRIVDKPDWQPYLPQNGDNIEVAFSYSSVLWPWSGYLAISISVTKKAASWEGIAQGHVMITVASPAETESKNGAEQTSTVKLPIKVKIIPTPPRSKRVLWDQYHNLRYPPGYFPRDNLRMKNDPLDWNGDHIHTNFRDMYQHLRSMGYFVEVLGAPFTCFDASQYGTLLMVDSEEEYFPEEIAKLRRDVDNGLSLVIFSDWYNTSVMRKVKFYDENTRQWWMPDTGGANIPALNELLSVWNMGFSDGLYEGEFTLANHDMYYASGCSIAKFPEDGVVITQTFKDQGLEVLKQETAVVENVPILGLYQIPAEGGGRIVLYGDSNCLDDSHRQKDCFWLLDALLQYTSYGVTPPSLSHSGNRQRPPSGAGSVTPERMEGNHLHRYSKVLEAHLGDPKPRPLPACPRLSWAKPQPLNETAPSNLWKHQKLLSIDLDKVVLPNFRSNRPQVRPLSPGESGAWDIPGGIMPGRYNQEV
B5: in the assay with SPRING_(ecto)-HA (human), the binding entry was “binds”.
